# Reference: the supplement of paper PMC8728848
# This is one part of the list.
# B1: Siglec-H (Mus musculus), Q4QQK7 (protein)
# chain: MLLSRLLPLLWVLKWASGNCFILPREVIGTYPSLTLELQSVTVQEGLCVLVPCHLIEYPMNRWSDAAFGYWFHEGENTHPDSLVATNKPYQLVQKEMQSRFHFSGDCSLDIRDAQKGDNGSYFFRLEKGGKTWNFCEERISVHVTDLTHSPNISIPQTLELGRPTNVMCSVPWACERGTPPIFSWMSAALISLGPTTTLSSVLTLTPRLQDHGTNLTCQVTFPGAGVTVQKTIQLNVTYNSQNSTAHVSGRVGPGKPRPLADVVQVAMGEAAIKFLLLGICFFFLSKRSHTKRVERPATHMDQAHAVMD
# Tests used:
# Assay in all cases: glycan array binding signal (z-score within array); higher = stronger binding
# Conditions in all cases: glycan notation: IUPAC condensed, linker removed
# [1] = biological target: Gal(b1-4)GlcNAc(b1-3)GalNAc
# Method in brief: (§1)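 From the Consortium for Functional Glycomics database, 3228 arrays were curated, keeping only those whose protein sequence was available. Binding is given as a within-array Z-score averaged across arrays sharing a protein sequence and across linkers. Negative Z-scores can be read as non-binding.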
# [2] = biological target: Gal(b1-4)GlcNAc(b1-3)[Gal(b1-4)GlcNAc(b1-6)]GalNAc
# Method in brief: as §1
# [3] = biological target: Gal(b1-4)GlcNAc(b1-6)Gal(b1-4)GlcNAc(b1-6)GalNAc
# Method in brief: as §1
# [4] = biological target: Gal(b1-4)GlcNAc(b1-6)GalNAc
# Method in brief: as §1
# [5] = biological target: Gal(b1-4)GlcNAc(b1-6)[Gal(b1-3)]GalNAc
# Method in brief: as §1
# Gal3S(b1-3)GalNAc = biological target: Gal3S(b1-3)GalNAc
# Method in brief: as §1
# Gal3S(b1-3)GlcNAc = biological target: Gal3S(b1-3)GlcNAc
# Method in brief: as §1
# [6] = biological target: Gal3S(b1-3)[Fuc(a1-4)]GlcNAc
# Method in brief: as §1
# Gal3S(b1-4)Glc = biological target: Gal3S(b1-4)Glc
# Method in brief: as §1
# Gal3S(b1-4)Glc6S = biological target: Gal3S(b1-4)Glc6S
# Method in brief: as §1
# Gal3S(b1-4)GlcNAc = biological target: Gal3S(b1-4)GlcNAc
# Method in brief: as §1
# Gal3S(b1-4)GlcNAc6S = biological target: Gal3S(b1-4)GlcNAc6S
# Method in brief: as §1
# Gal3S6S(b1-4)GlcNAc = biological target: Gal3S6S(b1-4)GlcNAc
# Method in brief: as §1
# Gal3S6S(b1-4)GlcNAc6S = biological target: Gal3S6S(b1-4)GlcNAc6S
# Method in brief: as §1
# Gal4S(b1-4)GlcNAc = biological target: Gal4S(b1-4)GlcNAc
# Method in brief: as §1
# Gal4S6S(b1-4)GlcNAc = biological target: Gal4S6S(b1-4)GlcNAc
# Method in brief: as §1
# Gal6S(b1-4)Glc = biological target: Gal6S(b1-4)Glc
# Method in brief: as §1
# Gal6S(b1-4)Glc6S = biological target: Gal6S(b1-4)Glc6S
# Method in brief: as §1
# Gal6S(b1-4)GlcNAc = biological target: Gal6S(b1-4)GlcNAc
# Method in brief: as §1
# GalNAc(a1-3)Gal = biological target: GalNAc(a1-3)Gal
# Method in brief: as §1
# GalNAc(a1-3)GalNAc = biological target: GalNAc(a1-3)GalNAc
# Method in brief: as §1
# [7] = biological target: GalNAc(b1-3)Gal(a1-4)Gal(b1-4)GlcNAc
# Method in brief: as §1
# GalNAc(b1-3)GalNAc = biological target: GalNAc(b1-3)GalNAc
# Method in brief: as §1
# GalNAc(b1-4)GlcNAc = biological target: GalNAc(b1-4)GlcNAc
# Method in brief: as §1
# Glc(a1-4)Glc = biological target: Glc(a1-4)Glc
# Method in brief: as §1
# Glc(a1-6)Glc(a1-6)Glc = biological target: Glc(a1-6)Glc(a1-6)Glc
# Method in brief: as §1
# Glc(b1-4)Glc = biological target: Glc(b1-4)Glc
# Method in brief: as §1
# Glc(b1-6)Glc = biological target: Glc(b1-6)Glc
# Method in brief: as §1
# GlcA(b1-3)Gal = biological target: GlcA(b1-3)Gal
# Method in brief: as §1
# GlcA(b1-6)Gal = biological target: GlcA(b1-6)Gal
# Method in brief: as §1
# [8] = biological target: GlcNAc(a1-3)Gal(b1-4)GlcNAc
# Method in brief: as §1
# [9] = biological target: GlcNAc(a1-6)Gal(b1-4)GlcNAc
# Method in brief: as §1
# [10] = biological target: GlcNAc(b1-2)Gal(b1-3)GalNAc
# Method in brief: as §1
# [11] = biological target: GlcNAc(b1-2)Man(a1-3)[GlcNAc(b1-2)Man(a1-6)]Man(b1-4)GlcNAc(b1-4)GlcNAc
# Method in brief: as §1
# GlcNAc(b1-3)Gal = biological target: GlcNAc(b1-3)Gal
# Method in brief: as §1
# [12] = biological target: GlcNAc(b1-3)Gal(b1-3)GalNAc
# Method in brief: as §1
# GlcNAc(b1-3)Gal(b1-4)Glc = biological target: GlcNAc(b1-3)Gal(b1-4)Glc
# Method in brief: as §1
# [13] = biological target: GlcNAc(b1-3)Gal(b1-4)GlcNAc
# Method in brief: as §1
# [14] = biological target: GlcNAc(b1-3)Gal(b1-4)GlcNAc(b1-3)Gal(b1-4)GlcNAc
# Method in brief: as §1
# GlcNAc(b1-3)GalNAc = biological target: GlcNAc(b1-3)GalNAc
# Method in brief: as §1
# [15] = biological target: GlcNAc(b1-3)[GlcNAc(b1-6)]Gal(b1-4)GlcNAc
# Method in brief: as §1
# [16] = biological target: GlcNAc(b1-3)[GlcNAc(b1-6)]GalNAc
# Method in brief: as §1
# [17] = biological target: GlcNAc(b1-3)[GlcNAc(b1-6)]GlcNAc(b1-4)GlcNAc
# Method in brief: as §1
# [18] = biological target: GlcNAc(b1-4)Gal(b1-4)GlcNAc
# Method in brief: as §1
# [19] = biological target: GlcNAc(b1-4)GlcNAc(b1-4)GlcNAc
# Method in brief: as §1
binder,measurement,setting,value
B1,glycan array binding signal (z-score),[1],-0.27
same,glycan array binding signal (z-score),[2],6.24
same,glycan array binding signal (z-score),[3],-0.354
same,glycan array binding signal (z-score),[4],-0.41
same,glycan array binding signal (z-score),[5],-0.305
same,glycan array binding signal (z-score),Gal3S(b1-3)GalNAc,-0.302
same,glycan array binding signal (z-score),Gal3S(b1-3)GlcNAc,-0.341
same,glycan array binding signal (z-score),[6],-0.086
same,glycan array binding signal (z-score),Gal3S(b1-4)Glc,-0.253
same,glycan array binding signal (z-score),Gal3S(b1-4)Glc6S,0.231
same,glycan array binding signal (z-score),Gal3S(b1-4)GlcNAc,-0.359
same,glycan array binding signal (z-score),Gal3S(b1-4)GlcNAc6S,-0.224
same,glycan array binding signal (z-score),Gal3S6S(b1-4)GlcNAc,-0.281
same,glycan array binding signal (z-score),Gal3S6S(b1-4)GlcNAc6S,-0.256
same,glycan array binding signal (z-score),Gal4S(b1-4)GlcNAc,-0.299
same,glycan array binding signal (z-score),Gal4S6S(b1-4)GlcNAc,-0.159
same,glycan array binding signal (z-score),Gal6S(b1-4)Glc,0.181
same,glycan array binding signal (z-score),Gal6S(b1-4)Glc6S,-0.331
same,glycan array binding signal (z-score),Gal6S(b1-4)GlcNAc,-0.159
same,glycan array binding signal (z-score),GalNAc(a1-3)Gal,-0.32
same,glycan array binding signal (z-score),GalNAc(a1-3)GalNAc,-0.342
same,glycan array binding signal (z-score),[7],1.08
same,glycan array binding signal (z-score),GalNAc(b1-3)GalNAc,-0.393
same,glycan array binding signal (z-score),GalNAc(b1-4)GlcNAc,-0.266
same,glycan array binding signal (z-score),Glc(a1-4)Glc,0.219
same,glycan array binding signal (z-score),Glc(a1-6)Glc(a1-6)Glc,1.6
same,glycan array binding signal (z-score),Glc(b1-4)Glc,-0.31
same,glycan array binding signal (z-score),Glc(b1-6)Glc,0.754
same,glycan array binding signal (z-score),GlcA(b1-3)Gal,1.24
same,glycan array binding signal (z-score),GlcA(b1-6)Gal,-0.235
same,glycan array binding signal (z-score),[8],-0.125
same,glycan array binding signal (z-score),[9],2.05
same,glycan array binding signal (z-score),[10],-0.316
same,glycan array binding signal (z-score),[11],-0.351
same,glycan array binding signal (z-score),GlcNAc(b1-3)Gal,-0.315
same,glycan array binding signal (z-score),[12],-0.361
same,glycan array binding signal (z-score),GlcNAc(b1-3)Gal(b1-4)Glc,-0.331
same,glycan array binding signal (z-score),[13],-0.301
same,glycan array binding signal (z-score),[14],-0.28
same,glycan array binding signal (z-score),GlcNAc(b1-3)GalNAc,-0.335
same,glycan array binding signal (z-score),[15],-0.321
same,glycan array binding signal (z-score),[16],-0.364
same,glycan array binding signal (z-score),[17],-0.32
same,glycan array binding signal (z-score),[18],-0.248
same,glycan array binding signal (z-score),[19],-0.352
